The text below walks through data of paper PMC4242493.

This is one part of the list. The list includes weakly bound sequences.

The target in the test is MaxL homodimer (UniProt P61244). The test can be described thus: universal protein-binding microarray (PBM). The note with it: PBS-based mixture, 10 nM His-tagged protein dimer, 2% milk, 200 ng/uL BSA, 50 ng/uL salmon testes DNA, 0.02% TX-100; detection with Alexa 488 anti-His …; high values mean tight binding; most listed sequences are background and not binding sites; double strand, one strand shown.
UniProt P61244, sequence (P61244 whole entry): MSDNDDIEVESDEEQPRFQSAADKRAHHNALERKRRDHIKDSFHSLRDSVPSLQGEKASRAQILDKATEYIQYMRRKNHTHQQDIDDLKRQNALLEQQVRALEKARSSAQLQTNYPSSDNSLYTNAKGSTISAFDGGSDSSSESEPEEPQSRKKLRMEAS
In the case of GTGCCAGA, the binding signal (normalized occupancy) is 0.0767.

Regarding AACATCAG, the binding signal (normalized occupancy) was found to be 0.0766. As for CCACTGCG, the figure is 0.0721. CGCCTTAC: the binding signal (normalized occupancy) amounted to 0.0702. To TTGGACAA belongs 0.0731; to TAGCCAAA, 0.0759. As for GTGCTACA, the figure is 0.0815; as for AGCCTACG, 0.0686; as for ATTTAAAT, 0.0763.

Turning to AAAGGTCG, the binding signal (normalized occupancy) stood at 0.0715. On to CTGTTGGA, for which the binding signal (normalized occupancy) came out at 0.0705. With GCCAGCGC, the binding signal (normalized occupancy) came to 0.069. For the sequence AAAGGTGT, the binding signal (normalized occupancy) came to 0.0816.

Turning to AACACTCA, the binding signal (normalized occupancy) came out at 0.0784. For CTCCTCAA, the binding signal (normalized occupancy) came out at 0.0745. As for TGCACCCA, the figure is 0.0807; as for AGGCGATA, 0.0741.

For AGCACACC, the binding signal (normalized occupancy) worked out at 0.0876. As for AGTTCATA, the figure is 0.0826.

On to AAGACTAC, for which the binding signal (normalized occupancy) came to 0.0705. Consider GTTCTTCA, for which the binding signal (normalized occupancy) worked out at 0.0702. As for ACCTTGGG, the figure is 0.074; as for ATCATAAT, 0.0881; as for AGACGTAG, 0.0724. To TGCGCGCA belongs 0.0844. As for GCGTGGGA, the figure is 0.125. With ATTCCGCA, the binding signal (normalized occupancy) was 0.0727. To CGACATCC belongs 0.0767. With GGGCGGTA, the binding signal (normalized occupancy) was 0.0721. As for ATCATCGA, the figure is 0.0825; as for CTAGCCCC, 0.0838.

Consider AAGTGTCC, for which the binding signal (normalized occupancy) came out at 0.0701. As for AGACGGAC, the figure is 0.0693; as for CTCCGGTA, 0.0742; as for CCTAGTTA, 0.0692. As for AAGGCCTA, the figure is 0.0709; as for CCCCACTA, 0.0843. Take CCCAGAGG: the binding signal (normalized occupancy) is 0.0704. As for CATACCAG, the figure is 0.0756. For CCCTGCAA, the binding signal (normalized occupancy) was 0.0774. As for ACTACACA, the figure is 0.0891; as for CTTGGCAC, 0.0753; as for ATAAGCAC, 0.0818.

For the sequence CAATCGCC, the binding signal (normalized occupancy) worked out at 0.0761. As for GCTACCGA, the figure is 0.0693. As for AATTGGAA, the figure is 0.0749; as for CGTCTGAA, 0.0727; as for GGACGCAA, 0.0745. As for AAGTGCTC, the binding signal (normalized occupancy) is 0.072. With GCTTGGAA, the binding signal (normalized occupancy) amounted to 0.0702. As to ATTGTCAC, the binding signal (normalized occupancy) was found to be 0.0832.

CTTGGTGA: the binding signal (normalized occupancy) worked out at 0.074. As for AAATTCAG, the binding signal (normalized occupancy) was 0.0699. For the sequence ATCTGCAT, the binding signal (normalized occupancy) is 0.0878. Turning to AGGATGCC, the binding signal (normalized occupancy) came to 0.078. To TAAGGTCA belongs 0.0838; to ATCCTCAA, 0.0756. As for ACGGCTTG, the figure is 0.0691. As to CTGCGATA, the binding signal (normalized occupancy) turned out to be 0.071. Regarding AGTTGCTG, the binding signal (normalized occupancy) was determined as 0.0707. With GCTCGGTA, the binding signal (normalized occupancy) is 0.0731. Turning to AATCTGGT, the binding signal (normalized occupancy) stood at 0.0735.

On to GGCGGCGA, for which the binding signal (normalized occupancy) was 0.071. As for TGGCCTAA, the figure is 0.0782; as for ACATGATC, 0.101. As for ATACCTCC, the figure is 0.0869. Consider GACGCTGA, for which the binding signal (normalized occupancy) amounted to 0.0692. To CTCAAAAG belongs 0.0757. As for AAGATCAA, the figure is 0.075; as for CTCGCGGC, 0.0764.

Regarding AATCGCGT, the binding signal (normalized occupancy) was found to be 0.0845. Consider CGCGACTA, for which the binding signal (normalized occupancy) is 0.071. Take ACTCGAAG: the binding signal (normalized occupancy) is 0.0695. Turning to CTTGTGTA, the binding signal (normalized occupancy) came out at 0.0811.

With GCCATAGC, the binding signal (normalized occupancy) came to 0.0735. For AAACAGTA, the binding signal (normalized occupancy) was 0.0764.

Consider AGTATTGA, for which the binding signal (normalized occupancy) was 0.0782. For the sequence AGCCCAAG, the binding signal (normalized occupancy) came out at 0.072.

Take GAAAGGGC: the binding signal (normalized occupancy) was determined as 0.068.

As to TAGAGGGA, the binding signal (normalized occupancy) was 0.0769. As for AGAGAATC, the figure is 0.0732; as for TTGATAAA, 0.0794. To ACATGAAC belongs 0.0866; to GAGTTGTA, 0.0751; to GATACCAC, 0.0803. As for CATACATA, the figure is 0.0846; as for ATGATGCA, 0.0844. As for ACTGATCC, the binding signal (normalized occupancy) was 0.0713. To AACCTACG belongs 0.0753. Regarding GTTAAGCA, the binding signal (normalized occupancy) worked out at 0.0767. Consider ACCGTGAC, for which the binding signal (normalized occupancy) worked out at 0.0781.

Regarding AACGGCCA, the binding signal (normalized occupancy) turned out to be 0.0706.

ATACTTAC: the binding signal (normalized occupancy) turned out to be 0.0835. To TCAAGTCA belongs 0.0804.
